According to the supplement of paper PMC10126150:
Sequences with one replicate were seen in a single cluster, so their values are uncertain.

Test system: ATP
Assay: switch fluorescence ratio, 500 uM ATP over buffer (Cy3 cluster intensity, sum of 5 cycles each) (fold (ratio)); higher = stronger signal-on switching upon ATP binding; sequences stand for … in TCGTCGGCAGCGTCAGATGTGTATAAGAGACAGTTTTTTTTTTTTTTTTTTTTTTTTT…TC
Details: aptamer strand: ATP DNA aptamer (quencher-CACCTGGGGGAGTATTGCGGAGGAAGG + anchor), 100 nM annealed; ATP concentration: 500 uM; one replicate
How it was run: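 Per cluster, summed Cy3 intensity from the target cycles was divided by that from the buffer cycles to give the fluorescence ratio, then averaged per switch-domain sequence. Clusters outside 100-1000 RFU were excluded. The Cy3-labelled switching-strand clusters, on a modified Illumina MiSeq flow-cell, were annealed to 100 nM quencher-labelled ATP aptamer and imaged in selection buffer, then after 15 min with 500 uM ATP at 22 °C, for five cycles with NaOH stripping and re-annealing between them.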
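Further: ATP exposure 15 min at 22 °C before imaging.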

Sequence | switch fluorescence ratio
AATCGAGCTT | 1.03
AGGGGGTCC | 0.974
ACTATGCTCT | 0.993
AGAGGC | 1.09
CCGGCTTTCA | 1.01
GCTATATTTC | 1.12
CGTCGGGTCT | 1.04
GTGCATAGTC | 1.05
TTCGGTTGAA | 1.02
CGTGTCGCAG | 0.995
ATCCATCCTA | 1.02
GAGTCTAGGG | 0.989
GGAACATGTT | 1
GAATAACCGG | 0.946
TTCCACATAG | 1.01
AGATAATGTG | 1.04
TGGTCGTAGC | 0.954
GGCAAAAGTC | 0.965
CGCTGTGTTA | 1.03
ATCGTTGAGC | 0.988
GGGGGCCAAA | 1
TATATTAAAT | 1.02
GATGTTGTAG | 1

Sequence | switch fluorescence ratio
AGACAGGTG | 1.22
GCCTCACTA | 0.986
ACAGCTACGC | 1.06
GGTCTTCTA | 1.01
CATGATAAGC | 1.01
CTTAATAAG | 1.03
TCGTTGGTGC | 1.05
AGTTTTTG | 0.99
ACGAGGGACA | 1.05
CGGTCATAAT | 1.01
TTAGACCATA | 0.974
ACCCGGGTCA | 1.01
TCAAGATGTC | 0.945
GGAATAGGAT | 0.98
ACTTGGGCA | 1.01
CCGTTCTCAG | 1.17
AGCATCTGGC | 1.02
GCTAGGCGTA | 0.961
TAGGGGCCAT | 1.03
ATAAAGACCC | 1.01
TGACCCCCTC | 1.36
GTCTGATAGC | 1.02
GTAAGAATAT | 1.01

Sequence | switch fluorescence ratio
GGTAAATTAT | 1.01
CCGGGTGAAC | 1.5
GCTATATCCT | 1.09
TGCGATATGT | 1.05
TCGAACAGTG | 1.01
TTCGGTTGTT | 0.983
GCTCCACAGC | 1.24
GGCGTGAATA | 1.02
GCCGGACGAC | 1.17
TTCCGCTTTG | 1.2
CCTACGTTGT | 3.66
CTGCCCAGTT | 1.08
TCGAATCGG | 1.01
CTCATAGGCG | 0.947
GGCTAACGCT | 1.4
AATGCGGCCT | 1
TCATGGGCAG | 1.01
AAACTTTTCC | 1.85
CCTCAAATCT | 1.45
TGAGATTCTC | 0.91
TAATCGACTC | 0.994
TCATTCTAGC | 0.935
GCGTTTTTTA | 1.03

Sequence | switch fluorescence ratio
ACCTCCTATT | 1.02
ACTCTGAAAT | 3.53
AGTAGGGTA | 0.973
ATTTTGATTG | 0.957
GTCAAGGGAT | 1.01
TGCACAAAGC | 1.01
AACGGTCAAT | 1.1
TACTCATGAG | 0.933
TATCATT | 0.938
GGGAAGTAA | 1.02
AGAATATCC | 1.03
GATTGTGGTT | 0.991
ACTTCATGCA | 1.04
ATGTAAGCGA | 1.02
CGTCATGATT | 1.02
TCGTGGTTTG | 0.997
CTCAGAAAA | 1.01
CCCCAATCCA | 1.06
TTTAAAACTG | 1
ATACGGCTTG | 1.01
ATTAGATGTG | 0.993
AGCAACGCGG | 1.05
ACACTAACAG | 1.07

Sequence | switch fluorescence ratio
TCCCGCGTCC | 2.48
CACATGGCTT | 0.977
AACTGTTGCT | 1.01
GTGGTTTGT | 0.972
TGAATTGAAA | 1
AACATTTCGT | 0.971
TCATGGCAGA | 1.01
ATAGCTCTGT | 0.971
CCTCATGGGC | 3.63
TACTTTTACG | 1.1
AGCGTGAGA | 0.967
CATTAAATA | 0.966
GCGGCCGGGC | 1.03
TTGACAGCTT | 1.03
ATCCGAATGG | 1.09
CTAGCAGAGG | 1.06
AGAGCGTTGA | 1.08
CAAACGGCAG | 1.17
GTTTATGTTG | 1.02
AACCTTAGAG | 1.02
TTAGTCTCTA | 0.985
AGGGGCTCGC | 1.05
ATTCGGTCGG | 0.98

Sequence | switch fluorescence ratio
TTACCGTAGT | 1.11
ACGTCTGGAA | 1.03
AGGTTTGGCG | 1.03
GGGGGCCTTC | 1.08
CTTCATACTC | 1.36
AATGAAATTA | 0.97
TCTCGACGAT | 1.07
CAAACCAGGC | 1.74
TTGAGGTTCC | 1.01
GGTAGAGGTG | 1.05
AAGAGCTATC | 1.07
ACTAGGATGA | 1.01
TTGAATGCG | 0.984
CTGTCCGAA | 1.03
AACCAAGTCT | 1.22
CATGAAACGA | 1.04
GGCCTTTAGA | 0.989
GATGACGCAT | 1.88
AAAATATTAC | 1.05
CACATACGGT | 1.56
CTGGAGTGTT | 1.06
AATAACGTCT | 0.989
TATGGGGCCT | 1.05

Sequence | switch fluorescence ratio
TATGCAAGGG | 2.72
CAAAATATAG | 0.973
GGTGACCTCG | 0.938
TTTGTTAGCC | 1.02
CCAAAACTTT | 0.98
TTGTGTGCTC | 0.996
CTAATTTGT | 0.996
TGTTAAACAC | 1.1
ATGGTGGGA | 1.01
AGTTTGTCGC | 0.945
ACACCTTTTC | 2.54
TTTCATGCTG | 0.949
CCTCTTTGTG | 1.06
TGTCTTCGC | 0.965
AGGTACATAT | 1.02
AAGAACGGCC | 1.13
GTTTGACGGA | 1.02
ATCTAGAAAG | 1.03
GCACGGGGTA | 1.34
CGTATGGGAC | 0.969
